This is an account of results in patent US20200325225A1 (Hoffmann-La Roche, published 2020).

The target of one experiment is T1, murine FAP (murine, UniProt P97321 27-761, limits assumed).
T1 construct: also called mouse FAP; murine FAP (Analyte 2)
The experiment in a line: SPR (Biacore T200, 25 C, HBS-EP), simultaneous binding; FAP-mu4-1BBL held on immobilized murine 4-1BB Fc(kih); murine FAP 500 nM as second analyte, 30 uL/min, 90 s, dissociation 120 s. (In SPR one partner is held on a chip, and binding of the other changes the refractive index at the surface.)

A further experiment deals with T2, human FAP (human, UniProt Q12884 27-760, limits assumed).
T2 construct: also called Human FAP (Analyte 2)
The experiment can be described thus: SPR (Biacore T200, 25 C, HBS-EP), simultaneous binding; FAP-mu4-1BBL held on immobilized murine 4-1BB Fc(kih); human FAP 500 nM as second analyte, 30 uL/min, 90 s, dissociation 120 s.

B1: hybrid surrogate FAP-mu4-1BBL (Fc fusion)
heavy 1: RTEPRPALTITTSPNLGTRENNADQVTPVSHIGCPNTTQQGSPVFAKLLAKNQASLSNTTLNWHSQDGAGSSYLSQGLRYEEDKKELVVDSPGLYYVFLELKLSPTFTNTGHKVQGWVSLVLQAKPQVDDFDNLALTVELFPCSMENKLVDRSWSQLLLLKAGHRLSVGLRAYLHGAQDAYRDWELSYPNTTSFGLFLVKPDNPWEGGGGSGGGGSRTEPRPALTITTSPNLGTRENNADQVTPVSHIGCPNTTQQGSPVFAKLLAKNQASLSNTTLNWHSQDGAGSSYLSQGLRYEEDKKELVVDSPGLYYVFLELKLSPTFTNTGHKVQGWVSLVLQAKPQVDDFDNLALTVELFPCSMENKLVDRSWSQLLLLKAGHRLSVGLRAYLHGAQDAYRDWELSYPNTTSFGLFLVKPDNPWEGGGGSGGGGSRTVAAPSVFIFPPSDRKLKSGTASVVCLLNNFYPREAKVQWKVDNALQSGNSQESVTEQDSKDSTYSLSSTLTLSKADYEKHKVYACEVTHQGLSSPVTKSFNRGE[letters of human IgG1 Fc with changes left out]
chain: RTEPRPALTITTSPNLGTRENNADQVTPVSHIGCPNTTQQGSPVFAKLLAKNQASLSNTTLNWHSQDGAGSSYLSQGLRYEEDKKELVVDSPGLYYVFLELKLSPTFTNTGHKVQGWVSLVLQAKPQVDDFDNLALTVELFPCSMENKLVDRSWSQLLLLKAGHRLSVGLRAYLHGAQDAYRDWELSYPNTTSFGLFLVKPDNPWEGGGGSGGGGSASTKGPSVFPLAPSSKSTSGGTAALGCLVEDYFPEPVTVSWNSGALTSGVHTFPAVLQSSGLYSLSSVVTVPSSSLGTQTYICNVNHKPSNTKVDEKVEPKSC
heavy 2: EVQLLESGGGLVQPGGSLRLSCAASGFTFSSYAMSWVRQAPGKGLEWVSAIIGSGASTYYADSVKGRFTISRDNSKNTLYLQMNSLRAEDTAVYYCAKGWFGGFNYWGQGTLVTVSSASTKGPSVFPLAPSSKSTSGGTAALGCLVKDYFPEPVTVSWNSGALTSGVHTFPAVLQSSGLYSLSSVVTVPSSSLGTQTYICNVNHKPSNTKVDKKVEPKSCDKTHTCPPCPAPEAAGGPSVFLFPPKPKDTLMISRTPEVTCVVVDVSHEDPEVKFNWYVDGVEVHNAKTKPREEQYNSTYRVVSVLTVLHQDWLNGKEYKCKVSNKALGAPIEKTISKAKGQPREPQVCTLPPSRDELTKNQVSLSCAVKGFYPSDIAVEWESNGQPENNYKTTPPVLDSDGSFFLVSKLTVDKSRWQQGNVFSCSVMHEALHNHYTQKSLSLSPGK
light: EIVLTQSPGTLSLSPGERATLSCRASQSVTSSYLAWYQQKPGQAPRLLINVGSRRATGIPDRFSGSGSGTDFTLTISRLEPEDFAVYYCQQGIMLPPTFGQGTKVEIKRTVAAPSVFIFPPSDEQLKSGTASVVCLLNNFYPREAKVQWKVDNALQSGNSQESVTEQDSKDSTYSLSSTLTLSKADYEKHKVYACEVTHQGLSSPVTKSFNRGEC
notes: also called FAP-targeted mu4-1BBL construct
Turning to B1, the binding result with murine FAP and with human FAP was “binds” throughout.
